The record followed here is the supplement of paper PMC11417369.

The list shows a part of the results.

For this assay, the system named is PfHDP1 homeodomain (GST-tagged). In words: gcPBM binding intensity (ln(normalized median fluorescence intensity)); higher = stronger DNA binding. The procedure, abridged:
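For binding intensity, the highest Masliner-normalised natural-log median intensity across replicate spots of either probe orientation was taken. Protein bound to the array was stained with Alexa488 anti-GST antibody and scanned at 488 nm. The protein, GST-tagged P. falciparum DNA-binding domains from E. coli at about 25 μg on average, had been applied for 1 h to an Agilent 4 × 180k array of primer-extended double-stranded 36-bp intergenic genomic probes and negative controls.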
“ATCATATATGTTATTACACACGTTATGTTATTATAA [CACACA_site2712]”: the “gcPBM binding intensity (ln)” value was 6.88.
To “TATAATTTAGCTTGTGCATGCAGGTGCTACATTTGT [TGCATGCA_site217]” belongs 8.63.
For “GTGCATAGATGATATACACACAATATAATAGTATGT [CACACA_site5373]”, the “gcPBM binding intensity (ln)” value worked out at 6.82.
As for “TTAATTTCAAGTAGAAGTACTTTTATGATTGTGAGG [XGTACX_site1247]”, the “gcPBM binding intensity (ln)” value was found to be 6.14.
For the sequence “TATATAATATATATATGTACACATATACATTTTTAT [XGTACX_site2832]”, the “gcPBM binding intensity (ln)” value was determined as 6.56.
As for “TTTTCGGATAATAATTGTACGAAACATTTAAAAAAA [XGTACX_site8898]”, the “gcPBM binding intensity (ln)” value came to 6.13.
Consider “TTGTAAGAAAAACACACACACACATATATATATATA [CACACA_site795]”, for which the “gcPBM binding intensity (ln)” value worked out at 9.39.
For “ACTCAAAATTATAATTGTACAAATGCTTTGTTTAAT [XGTACX_site3437]”, the “gcPBM binding intensity (ln)” value came to 6.95.
As to “TAAATAGTTATAAAAGTGCAAAAAAAAAAAAAAAAA [GTGCAC_site9550]”, the “gcPBM binding intensity (ln)” value is 8.
Take “AATTTAAAAGAAAAAGAAAAATAATAAACAGAAGCA [XGTACX_negctrl_site503]”: the “gcPBM binding intensity (ln)” value was found to be 6.53.
For the sequence “TTGATTTACTATAGATGTACGTAAAATATAAATAAA [XGTACX_site8256]”, the “gcPBM binding intensity (ln)” value is 6.52.
In the case of “ATAAAACAAAAATATAAACACACATACATTGGTTTT [CACACA_site8809]”, the “gcPBM binding intensity (ln)” value worked out at 6.5.
On to “ATAAAAAATAAATATATACATACATACATACATATA [XGTACX_negctrl_site507]”, for which the “gcPBM binding intensity (ln)” value came out at 6.12.
Consider “TTTTCAAAAATATACACACACATAAATATAGGTATA [CACACA_site6506]”, for which the “gcPBM binding intensity (ln)” value came to 6.41.
Take “AGATACTTTCCTCAAACACACAAAACTATACAACAA [CACACA_site1474]”: the “gcPBM binding intensity (ln)” value is 6.79.
Take “GTTAGCTCGTTCGGAGCACACACATATATATATATA [CACACA_site8595]”: the “gcPBM binding intensity (ln)” value was 9.24.
Turning to “ATATTCTTCTAAAGGCGTACATCTACATTTATGAAA [XGTACX_site2145]”, the “gcPBM binding intensity (ln)” value was 6.28.
Regarding “ATTCAGTTCTATAATACACACATATATTGACATTAT [CACACA_site7309]”, the “gcPBM binding intensity (ln)” value is 7.05.
In the case of “TTTTTTCTTTCTTTCAAACACACATTAATTTTATTC [CACACA_site2733]”, the “gcPBM binding intensity (ln)” value was determined as 6.56.
Turning to “TTTTTTTTTTTTTGGTGTACTTTTTTTAGAACGCAA [XGTACX_site4207]”, the “gcPBM binding intensity (ln)” value is 6.26.
On to “AAAAATGAAAGGTGTACACATACAAACATAGAAAGA [CACACA_site5020]”, for which the “gcPBM binding intensity (ln)” value was 7.92.
To “AAAATTTATATAGGCACACAAATAAATTAATACATA [CACACA_site1418]” belongs 6.57.
For “ATATTAGAAATATGAATAGAAAGAATATATAAGTAT [CACACA_negctrl_site682]”, the “gcPBM binding intensity (ln)” value was found to be 6.91.
In the case of “ATTCTACACCCACATACACACATATATATATATATA [CACACA_site3426]”, the “gcPBM binding intensity (ln)” value is 9.38.
The result for “TGTTCAAATTTATTCGATCTTTATATTTAATAAAAC [CACACA_negctrl_site781]” reads 6.08.
Turning to “AATATTTATGTGAAGACACACAACTGTTTATTATAT [CACACA_site3447]”, the “gcPBM binding intensity (ln)” value is 6.42.
For the sequence “TTACAACAGAATGGTATTTTTTTATTTTAAAGAAAA [TGCATGCA_negctrl_site230]”, the “gcPBM binding intensity (ln)” value is 5.77.
As to “ATCCTACTATGTTATACACACAATTACTTTTTTCTC [CACACA_site3712]”, the “gcPBM binding intensity (ln)” value came to 7.42.
As for “ATATGTAAAACTTCAAAAAAATATATTTTATGACGA [GTGCAC_negctrl_site324]”, the “gcPBM binding intensity (ln)” value turned out to be 6.41.
For “ATATATAAAATATACACACATACTGTTCATTTAAAG [CACACA_site4169]”, the “gcPBM binding intensity (ln)” value is 6.67.
With “TACTACTATCTATATTGTACAAAAGGTGCCTACAAA [XGTACX_site4267]”, the “gcPBM binding intensity (ln)” value was 6.69.
The result for “ATTTATATATCGCCCACACACATGTGATTATTTATA [CACACA_site6905]” reads 7; that for “AAAAAAAATTATATATGTACTTATTAATCCTTATAT [XGTACX_site1389]”, 6.02; that for “TATTTCAAAAAAAAAAAAAATAAAAAACAACAACAA [CACACA_negctrl_site893]”, 6.8.
Regarding “TACAAGTTTTTAAAGTGTACCAAAAAAAAAGAATAA [XGTACX_site979]”, the “gcPBM binding intensity (ln)” value was 6.49.
As to “TCTATTCAAAATAAAAGTACTAGCATGTGAATTGTT [XGTACX_site5530]”, the “gcPBM binding intensity (ln)” value stood at 6.56.
As for “TTCATTTATTTACTTACACACTTTATATATGTGGTT [CACACA_site4901]”, the “gcPBM binding intensity (ln)” value is 6.88.
In the case of “AGTTCTTCGTACCAAAAAACGGCACGCATATGTATA [TGCATGCA_negctrl_site469]”, the “gcPBM binding intensity (ln)” value was 5.96.
To “TGTATTCATACATGCACACGTACATATTTAAATATA [CACACA_site3926]” belongs 8.39; to “AATTATATTCTATTCACACATATTCCAACCTCTTTT [CACACA_site4670]”, 6.65; to “TGTATGTTGTAAAATTGTACATATATATTATATTTA [XGTACX_site4883]”, 6.45.
For “ATGAATATAATAAAGAAACACACGTATACATAATGA [CACACA_site1355]”, the “gcPBM binding intensity (ln)” value came to 6.79.
With “AAAAGATAATTATGCACACACACACCCAGACACAAC [CACACA_site5428]”, the “gcPBM binding intensity (ln)” value came out at 10.4.
With “TTTGATGGTACACGTACACACCTTGCAAATATTTTT [CACACA_site4645]”, the “gcPBM binding intensity (ln)” value was 7.13.
On to “TGAAAGAACCTGATTACACACATAAATTATATATAT [CACACA_site26]”, for which the “gcPBM binding intensity (ln)” value worked out at 6.49.
For the sequence “TATTTATTGTGATACTTATATTATTTTATGATTAAA [CACACA_negctrl_site901]”, the “gcPBM binding intensity (ln)” value is 6.27.
As for “AGAGAGATGACAAAAAGATGAATAACGTTAAGGGAT [XGTACX_negctrl_site120]”, the “gcPBM binding intensity (ln)” value came out at 7.4.
“ATGGAAATATATACATGTACATAAATATATATATAT [XGTACX_site8391]”: the “gcPBM binding intensity (ln)” value was found to be 8.78.
Take “AGTAGTCTGGAGAAGAGTACATAGTATCTGGTAACC [XGTACX_site2043]”: the “gcPBM binding intensity (ln)” value turned out to be 6.29.
The result for “ATGTTTTGCATATATTATATATTTATTTATTTTTTT [CACACA_negctrl_site729]” reads 7.36.
Take “AGTGGACTTTTTTTTTTTTTTTTTTTTTTTTTATTA [CACACA_negctrl_site547]”: the “gcPBM binding intensity (ln)” value was found to be 5.88.
The result for “GATATAATTATATTATGGTGTTTTTGATAGATATTT [GTGCAC_negctrl_site313]” reads 6.42.
Consider “AGTATATACACGTGCGTGCACAGATATTCTTTTTTT [GTGCAC_site9398]”, for which the “gcPBM binding intensity (ln)” value came out at 9.58.
The result for “TATTTTAAAGAGAAAACATGCATTATATAGAACATT [TGCATGCA_site328]” reads 6.67; that for “ATCAAACCATAAAAGAGTACAAAAGGATGATATTTT [XGTACX_site8883]”, 6.59.
